Data as given in PubChem BioAssay AID686979 (National Center for Advancing Translational Sciences (NCATS), 2013).
“And” between values parts separate entries of the source, which are not always exact repeats. Equal entries are not always repeated. About 50,000 (12%) of roughly 420,000 compounds were called active. The shares of active, inactive and inconclusive entries below differ from those in the screen. Calls follow the shape of the dose curve; as a rule, active = well fitted inhibition curve with a large enough effect; inconclusive = small, poorly fitted or top-dose-only effect; inactive = flat fitted curve, though single readings scatter. Potencies beside an inconclusive call are fits to weak or partial responses and may not hold up.
% is scaled to controls: 0 for no effect and ±100 for the full control effect; potency is read from the fitted curve at half-maximal effect; tags tell the direction and shape of the fitted curve.

Assay: qHTS for Inhibitors of human tyrosyl-DNA phosphodiesterase 1 (TDP1): qHTS in cells in presence of CPT; also: nearly all actives have a fitted effect of over 55% in size
Conditions: chicken DT40 Tdp1-/-;hTDP1 cells + 20 nM CPT, ATP luminescence, 48 h; activity change, negative = growth inhibition: at 46.2 µM (top of the series) unless noted
Procedure, shortened: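 Cell growth measured by CellTiter-Glo luminescence after a minimum 48 h, 37 C compound exposure with 20 nM CPT in Tdp1-knockout DT40 cells stably expressing hTDP1, seeded 400/well; qHTS titration format.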
In the case of `CCn1c(COc2ccc(OC)cc2)nc2ccccc21`, the “activity change, negative = growth inhibition” value is reported as inactive: -5.01%.
For `Oc1ccc(Nc2nc(-c3ccccc3O)nc3ccccc23)cc1`, the Potency was inconclusive: 18.4 µM [inhibitor, partial curve].
For `CCOC(=O)C1=C(C)NC(=O)NC1c1cccc(OC)c1OCc1ccccc1Cl` (stereo not given), the Potency was active: 8.2 µM.
In the case of `COc1ccc(CCNC(=O)c2ccc3c(c2)ncn3-c2ccc(C)cc2C)cc1OC`, the Potency is reported as inconclusive: 18.4 µM [inhibitor, single point].
With `CCc1ccc(S(=O)(=O)c2nnn3c2nc(NC(C)C)c2sccc23)cc1` the Potency was active: 20.6 µM.
In the case of `CC(C)CCNC(=O)CN1C(=O)CSc2ccc(S(=O)(=O)N3CCCCC3)cc21`, the Potency is reported as inconclusive: 25.9 µM [inhibitor, single point].
In the case of `CCOc1ccc(NC(=O)CCc2nnc3ccc(N4CCC5(CC4)OCCO5)nn23)cc1`, the “activity change, negative = growth inhibition” value is reported as inactive: -2.6%.
With `COc1ccc(-c2ccc3nnc(SCC(=O)Nc4ccc(NC(C)=O)cc4)n3n2)cc1` the Potency was inconclusive: 29.1 µM [inhibitor, single point].
In the case of `Cc1cc(C)c(C#N)c(SCC(=O)c2cc(C)n(CCc3ccccc3)c2C)n1`, the Potency is reported as active: 18.4 µM.
With `CSc1ccc(CN2CCC2(C)C(=O)Nc2cnc3ccccc3c2)cc1` (stereo not given) the Potency was inconclusive: 29.1 µM [inhibitor, single point].
For `CCOc1ccc(CNC(=O)c2ccccc2NC(=O)C2=CSCCO2)cc1`, the Potency was inconclusive: 29.1 µM [inhibitor, single point].
In the case of `CCn1c(SCC(=O)Nc2cccc(NC(=O)c3ccco3)c2)nnc1-c1cccs1`, the Potency is reported as inconclusive: 25.9 µM [inhibitor, single point].
For `Cc1ccc(C)n1-c1cc(S(=O)(=O)N2CCOCC2)ccc1N1CCCC1`, the Potency was active: 20.6 µM.
With `Cc1cc(=O)n2[nH]cc(C(=O)O)c2n1` the Potency was inconclusive: 6.51 µM [inhibitor, single point].
With `COc1ccc(NC(=O)c2cc(-c3ccc(C)o3)nc3ccccc23)cc1OC` the Potency was active: 18.4 µM.
In the case of `CCc1ccccc1NC(=O)C1CCCN(C(=O)c2cnn(-c3ccccc3)c2-n2cccc2)C1` (stereo not given), the Potency is reported as inconclusive: 29.1 µM [inhibitor, single point].
For `CCOC(=O)c1c(-c2ccc(C)cc2)csc1NC(=O)c1nc(SC(C)C)ncc1Cl`, the “activity change, negative = growth inhibition” value was inactive: -0.296%.
For `CC1(C)OC(=O)C2=C(C[C@@H](CCc3ccccc3)O[C@@H]2c2ccc(Cl)cc2)O1`, the Potency was inconclusive: 29.1 µM [inhibitor, single point].
With `O=C(c1cc2ccccc2oc1=O)N(Cc1ccco1)Cc1cccs1` the Potency was active: 20.6 µM.
In the case of `Cc1onc(C(=O)N2CCN(Cc3ccccc3)CC2)c1[N+](=O)[O-]`, the Potency is reported as inconclusive: 23.1 µM [inhibitor, single point].
With `CCCCC(=O)Nc1ccc2c(c1)nc(CCN1CCN(c3ccccn3)CC1)n2C` the Potency was inconclusive: 29.1 µM [inhibitor, single point].
In the case of `COc1ccc(C(=O)n2c(N)nc3ccccc32)cc1OC`, the activity change, negative = growth inhibition is reported as inconclusive: -31.9% [inhibitor].
For `O=C(c1ccc(Cl)cc1)c1oc2ccccc2c1CS(=O)c1ccccc1` (stereo not given), the Potency was inconclusive: 29.1 µM [inhibitor, single point].
For `O=C(c1nc2ncccn2n1)N1CCOc2ccc(C(O)C(c3ccccc3)c3ccccc3)cc2C1` (stereo not given), the Potency was inconclusive: 0.82 µM [inhibitor, full curve, poor fit].
In the case of `CCN1c2cccc3cccc(c23)S1(=O)=O`, the activity change, negative = growth inhibition is reported as inconclusive: -32.7% [inhibitor].
With `S=C(NNc1ccnc2cc(Cl)ccc12)Nc1ccccc1Cl` the Potency was active: 4.11 µM.
In the case of `COc1ccc(S(=O)(=O)N2CCN(Cc3nc4ccc(C)cc4o3)CC2)cc1Cl`, the Potency is reported as active: 18.4 µM.
For `N#Cc1ccc(C(=O)Nc2ccc(S(=O)(=O)NC3=NCCCCC3)cc2)cc1`, the Potency was inconclusive: 9.2 µM [inhibitor, partial curve, poor fit].
For `CCCNc1nc(OC(C(F)(F)F)C(F)(F)F)nc(OC(C(F)(F)F)C(F)(F)F)n1`, the Potency was inconclusive: 13 µM [inhibitor, single point].
For `CCCc1nc(SCc2cc(=O)c3ccc(C)c(C)c3[nH]2)n[nH]1`, the Potency was inconclusive: 6.51 µM [inhibitor, partial curve].
In the case of `O=C(NCc1cccs1)c1cc(-c2ccccc2)nc2ccccc12`, the Potency is reported as active: 23.1 µM.
With `CC1CN(C(=O)CCCN2C(=O)c3ccccc3C2=O)CC(C)O1` (stereo not given) the “activity change, negative = growth inhibition” value was inactive: 15.8%.
For `O=C(NC1CC1)c1ccc(S(=O)(=O)NCC2CCCCC2)cc1`, the Potency was inconclusive: 3.66 µM [inhibitor, full curve].
With `CCc1cc2c(cc3c(=O)n(CC(=O)NC4CCC(C)CC4)ncn32)s1` (stereo not given) the Potency was inconclusive: 16.4 µM [inhibitor, single point].
For `COc1ccc(C(CNC(=O)COc2ccc(Br)cc2F)N2CCCC2)cc1` (stereo not given), the “activity change, negative = growth inhibition” value was inactive: -15.6%.
For `Clc1ccccc1CSc1nc2ccncc2[nH]1`, the Potency was inconclusive: 18.4 µM [inhibitor, single point].
In the case of `O=C1NC(c2cccc3ccccc23)Nc2ccc(Cl)cc21` (stereo not given), the Potency is reported as active: 0.461 µM.
With `Cc1cc(S(=O)(=O)NCc2ccccc2)ccc1OCC(=O)NCc1cccnc1` the “activity change, negative = growth inhibition” value was inactive: 4.27%.
In the case of `O=C(Nc1cccs1)Nc1ccc(Br)cc1F`, the Potency is reported as inconclusive: 20.6 µM [inhibitor, partial curve].
In the case of `CCOc1ccc(N2CC(NC(=O)c3ccc(S(=O)(=O)N4CCCCC4)cc3)CC2=O)cc1` (stereo not given), the Potency is reported as inconclusive: 23.1 µM [inhibitor, single point].
In the case of `S=C(c1ccc(-c2ccccc2Cl)o1)N1CCOCC1`, the Potency is reported as inconclusive: 14.6 µM [inhibitor, partial curve].
For `CCOc1ccc(OCc2ccc(C(=O)Nc3cccnc3)o2)cc1`, the Potency was inconclusive: 23.1 µM [inhibitor, single point].
With `CCC1CCCCN1CCCNC(=O)c1ccc2c(c1)N(Cc1ccc(F)cc1)C(=O)c1ccccc1S2=O` (stereo not given) the Potency was inconclusive: 25.9 µM [inhibitor, single point].
In the case of `CCOc1ccccc1NC(=O)c1c(NC(=O)c2cccc(C)c2)sc2c1CCC2`, the Potency is reported as inconclusive: 25.9 µM [inhibitor, single point].
For `CC1(C(=O)NCCc2ccccc2)Cc2c(-c3cccc(C(N)=O)c3)ccnc2O1` (stereo not given), the Potency was inconclusive: 29.1 µM [inhibitor, single point].
For `COc1ccc(Cl)cc1NC(=O)N1CCN(c2ccccc2OC)CC1`, the Potency was inconclusive: 18.4 µM [inhibitor, single point].
For `COc1cc(OC)c(NS(=O)(=O)c2ccc3c(c2)CCCN3C(C)=O)cc1Cl`, the Potency was inconclusive: 25.9 µM [inhibitor, single point].
In the case of `CCN(CC)P(=O)(Nc1ccc(SC(F)F)cc1)c1ccc(N(C)C)cc1NC(=O)c1ccco1` (stereo not given), the Potency is reported as inconclusive: 25.9 µM [inhibitor, single point].
In the case of `Cc1cc(C)c([N+](=O)[O-])cc1-c1ccc(/C=N/NC(=O)c2nonc2N)o1`, the Potency is reported as inconclusive: 23.1 µM [inhibitor, single point].
In the case of `CN(C)S(=O)(=O)c1ccc(NC(=O)C2CC(=O)N(Cc3ccccc3Cl)C2)cc1` (stereo not given), the “activity change, negative = growth inhibition” value is reported as inactive: 8.26%.
In the case of `CC(=O)Nc1cccc(-c2ccnc3c2CC(C(=O)Nc2ccc(Cl)cc2)O3)c1` (stereo not given), the Potency is reported as active: 16.4 µM.
For `CC(NC(=O)c1ccc(NC2=NC3CS(=O)(=O)CC3S2)cc1)c1ccccc1` (stereo not given), the “activity change, negative = growth inhibition” value was inactive: -10.6%.
With `Cc1ccc(C(c2nnnn2Cc2cccs2)N2CCN(Cc3ccc4c(c3)OCO4)CC2)cc1` (stereo not given) the Potency was active: 7.31 µM.
For `CC(OC(=O)c1n[nH]c2ccccc12)C(=O)NC1CCCCC1C` (stereo not given), the “activity change, negative = growth inhibition” value was inactive: -8.8%.
With `Cc1coc2cc3oc(=O)c(CCC(=O)NCCCN4CCOCC4)c(C)c3cc12` the Potency was inconclusive: 29.1 µM [inhibitor, single point].
In the case of `Cc1ccc(-c2cc(C(=O)N/N=C/C(Br)=C/c3ccccc3)n[nH]2)o1`, the Potency is reported as active: 11.6 µM.
With `Cc1ccc(NC(=O)CSc2nc3ccccc3nc2N2CCOCC2)cc1` the Potency was inconclusive: 23.1 µM [inhibitor, single point] and inconclusive: 29.1 µM [inhibitor, single point].
For `CCc1ccc(C(=O)NN(C(=O)c2ccc(CC)cc2)C(C)(C)C)cc1`, the Potency was inconclusive: 20.6 µM [inhibitor, single point].
In the case of `CC1=NN(C(=O)c2ccccc2Br)C(O)(c2ccc(Cl)cc2)C1` (stereo not given), the “activity change, negative = growth inhibition” value is reported as inactive: 2.4%.
With `CCc1nc2ccc(C(=O)NCCc3c[nH]c4ccccc34)cn2c1N(C)Cc1nccn1C` the Potency was inconclusive: 16.4 µM [inhibitor, single point].
For `CN(Cc1ccccc1)C(=O)COC(=O)Cc1ccc(Cl)cc1`, the “activity change, negative = growth inhibition” value was inactive: 0.284%.
For `CCOC(=O)c1scc(-c2ccccc2)c1S(=O)(=O)Nc1cc(Cl)c(OC)cc1OC`, the Potency was inconclusive: 20.6 µM [inhibitor, single point].
In the case of `CCOC(=O)COc1cc2c3c(c(=O)oc2cc1C)CCCC3`, the “activity change, negative = growth inhibition” value is reported as inactive: -1.99%.
For `O=C(NNc1ccccn1)C(=O)NNS(=O)(=O)c1ccc(Cl)cc1`, the Potency was inconclusive: 29.1 µM [inhibitor, single point].
With `Cn1c(-c2ccc3c(c2)OCO3)cnc1NCc1ccccc1Cl` the Potency was inconclusive: 29.1 µM [inhibitor, single point].
With `CC1CCc2c(sc(NC(=O)C3c4ccccc4Oc4ccccc43)c2C(=O)OC(C)C)C1` (stereo not given) the “activity change, negative = growth inhibition” value was inactive: -2.23%.
For `CC1(C)CC(=O)N(c2cc(Cl)ccc2Cl)C(=O)C1`, the “activity change, negative = growth inhibition” value was inactive: -4.98%.
In the case of `COc1ccc(Nc2nc(N)c3cc(OC)c(OC)cc3n2)cc1`, the Potency is reported as inconclusive: 29.1 µM [inhibitor, single point].
In the case of `Cn1c(=O)c2c(ncn2CCc2ccccc2)n(C)c1=O`, the “activity change, negative = growth inhibition” value is reported as inactive: 1.78%.
With `CC(=O)c1cccc(NC(=S)NCc2ccccc2)c1` the “activity change, negative = growth inhibition” value was inactive: -2.92%.
